± gives the standard deviation. This is a selection; strong and weak results do not stand in their true shares. A value given as a limit tells only on which side of the number the result lay.

The test system of this test is MIWI (PIWIL1) piRISC loaded with piRNA #1 (30 nt). In words: pre-steady-state target cleavage rate (min^-1); MIWI and MILI are mouse PIWI proteins and EfPiwi is from a freshwater sponge; tags in brackets are library labels; higher = faster piRNA-guided slicing of the target. To be noted: guide: piRNA #1 5'p-UGAGGUAGUAGGUUGUAUAGUAUCCAGAGG; auxiliary factor: 500 nM mouse GTSF1. In short, it runs like this: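 Using HEPES–potassium acetate buffer at 33 °C, 1 nM active affinity-purified piRISC with a single synthetic guide was mixed with 0.1 nM transcribed, DNA-blocked target RNA library for 0–8 or 0–960 min, with or without 500 nM GTSF1 partner protein. Uncleaved targets were sequenced and normalised to depth and to weakly complementary targets, and three trials were pooled with k3 capped at 0.0001 min^-1. A burst-and-steady-state fit gave the pre-steady-state cleavage rate.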
GGAGACGAUAGUAUACAACCUACUACCUCA: the “pre-steady-state target cleavage rate” value is 1.07 ± 0.065. Regarding GGAGACGAUACUAUACAACCUUGUACCUCA, the “pre-steady-state target cleavage rate” value turned out to be 0.083 ± 0.013.

On to GGAGACCAUACUAUACAAGCUACUACGUCA, for which the “pre-steady-state target cleavage rate” value is 0.572 ± 0.034. The result for GGAGACCUUUCUAUACAACCUACUACCACA reads 0.841 ± 0.089; that for CCUCUGGAUACUAUAAACCUACUACCUCA, 1.23 ± 0.11; that for GGAGACCAUACUAUACAACCUUGUACCUCA, 0.0248 ± 0.0046. Next, CCUCUGGAUACUUUACAACCUACUACCACA: 1.54 ± 0.12. As for GGAGACCUAUGAUAUGUACCAACUACCUCA, the “pre-steady-state target cleavage rate” value was < 0.0001.

On to GGAGACCUAUGUAUACUACCUACUACGUCA, for which the “pre-steady-state target cleavage rate” value came to 0.0024 ± 0.0022. Turning to GGUCUGGCUACUAUACAACCUACUACCUCA, the “pre-steady-state target cleavage rate” value amounted to 1.99 ± 0.11. The result for GGACUCGAUACUAUACAAGCUACUACCUCA reads 1.09 ± 0.061.

GGAGUGGGAUACUAUACAACCUACUACCUCA: the “pre-steady-state target cleavage rate” value came to 1.68 ± 0.074.

In the case of “GGAGACCUAUGAUAUGUACCUACUAGGAGA [g6:g13:cont:t1A]”, the “pre-steady-state target cleavage rate” value was < 0.0001. Next, GGAGACCAUACUAUUGAACCUACUACCUCA: 0.413 ± 0.037. The result for GGAGAGGAUAGUAUACAACCAACUACCUCA reads 0.0443 ± 0.0091. GGAGACGAUACUAUACAACCUACUAGCCUCA: the “pre-steady-state target cleavage rate” value stood at 0.845 ± 0.081. Next, GGAGACCAUAGUAUACAUCCUACUACCUCA: 0.344 ± 0.036. As to GGAGACGAUAGUAUACAACCUACUACCACA, the “pre-steady-state target cleavage rate” value was determined as 0.78 ± 0.093.

GCACUGGAUACUAUACAACCUACUACCUGA: the “pre-steady-state target cleavage rate” value is 1.04 ± 0.16. Next, GGAGACCAUACUAAUACAACCUACUACCUCA: 0.978 ± 0.08; GGAGUGGAAACAAUACAACCUACUACCUCA: 0.696 ± 0.072; GGAGUGGAUACGUAUACAACCUACUACCUCA: 1.25 ± 0.077.

In the case of GCUCUGGAUCACUAUACAACCUACUACCUCA, the “pre-steady-state target cleavage rate” value was found to be 1.05 ± 0.091. The result for CCUCUGGAUACAAUACAACCUACUAGCUCA reads 1.24 ± 0.08.
